Test results as given in the RNAGym collection of RNA variant scans (doi:10.7554/elife.90254).
The source gives no read counts; variants with many changes may rest on few reads.

B1: OR4K15 (parent)
chain: GUUAACGGUCAUAGGCCAUGGAAACUAGGAGCACCAUUUCGCUGCCAGUGAAGAAAUGAACAAAGAAAAUCUGGGCCAGGCAGGCAUCAAAAGAAAUAGUCUUGCGCUCAACCAGAAAGUCUGUAAUCAUUUUAAGGGUA

Variants of: B1
Assay: self-cleavage, relative activity (ratio to wild type); higher = more cleavage; in vitro, sequencing; the parent is a self-cleaving ribozyme

Row | Variant | self-cleavage
1 | GUUAACGGUCAUAGGCCAUGGAAACUAGGAGCACCAUUUCGCUGCCAGUGAAGAUAUGAACUAAGAAGAUCUGGGCCAGGCGGGCAUCAAAAGAAAUAGUCUUGCGCUCCACCAGAAAGUCUGUAAUCAUUUUAAGGGUA [A55U A62U A68G A82G A110C] | 0.08
2 | GUUAACGGUCAUAGGCCAUGGAAACUAGGAGCACCAUUUCGCUGCCAGUGAAGAAGUGGACAAAGAAAAUCUGGGCCAGGCAGGCUUCAAGAGGAAUAGUCUUGCGCUCAACCAGAAAGUCUGUAAUCAUUUUAAGGGUA [A56G A59G A86U A91G A94G] | 0.77
3 | GUUAACGGUCAUAGGCCAUGGAAACUAGGAGCACCAUUUCGCUGCCAGUGAAGAUAUGAACAGAGAAAAUCUGGGCCAGGCAGGCAUCAAAAGAAAUAGCCUUGCGCUCAACCAGAAGGUCUGUAAUCAUUUUAAGGGUA [A55U A63G U100C A118G] | 1.3
4 | GUUAACGGUCAUAGGCCAUGGAAACUAGGAGCACCAUUUCGCUGCCAGUGAAGAUAUGAACAAAGAGAAUCUGGGCCAGGCAGGCAUCAAAAGAAAUAGUCUUGCGCUCAACCAGAAAGUCCGUAAUCAUUUUAAGGGUA [A55U A67G U122C] | 1.48
5 | GUUAACGGUCAUAGGCCAUGGAAACUAGGAGCACCAUUUCGCUGCCAGUGAAGAACUGAACAAAGAAAAUCUGGGCCAAGCAGGCAUCGAAAGAAAUAGUCUUGCGCUCAACCAGAAAGUCUGUAACCAUUUUAAGGGUA [A56C G79A A89G U127C] | 0.07
6 | GUUAACGGUCAUAGGCCAUGGAAACUAGGAGCACCAUUUCGCUGCCAGUGAAGAUAUGAACAAAGAGAAUCUGGGCCAGGCAGGCAUCAAAAGAAAUAGUCUUGCGCUCAACCGGAAAGUCUGUAAUCAUUCUAAGGGUA [A55U A67G A114G U132C] | 0.19
7 | GUUAACGGUCAUAGGCCAUGGAAACUAGGAGCACCAUUUCGCUGCCAGUGAAGAAGUGGACAAAGAAAAUCUGGGCCAGGCAGGCAUCAAAAGAAAUAGUCUUGCGCUCAACCAGAAAGUCUGUGAUCAUUUUAAGGGUA [A56G A59G A125G] | 0.3
8 | GUUAACGGUCAUAGGCCAUGGAAACUAGGAGCACCAUUUCGCUGCCAGUGAAGAUAUGAACAAAGAAAACCUGGGCCAGGCAGGCAUCAAAAGAAAUAGUCUUGCGCUCAACCAGAAAAUCUGUAAUCAUUUUAAGGGUA [A55U U70C G119A] | 0.54
9 | GUUAACGGUCAUAGGCCAUGGAAACUAGGAGCACCAUUUCGCUGCCAGUGAAGAUAUGAACAAAGAAAAUCUGGGCCAGGCAGGCAUCAAAAGAGAUAGUCUUGCGCUCAUCCAGAAAGUCUGUAAUCAUUUUAAGGGUA [A55U A95G A111U] | 0.2
10 | GUUAACGGUCAUAGGCCAUGGAAACUAGGAGCACCAUUUCGCUGCCAGUGAAGAUAUGAUCAAAGAAAAUCUGGGCCAGGCAGGCAUCAAAAGCAAUAGUCUUGCGCUCAACCAGAAAGUCUGUAAUCAUUUUAAGGGUA [A55U A60U A94C] | 0.44
11 | GUUAACGGUCAUAGGCCAUGGAAACUAGGAGCACCAUUUCGCUGCCAGUGAAGAUAUGAACUGAGAAAAUCUGGGCCAGGCAGGCAUCAAAAGAAAUAGUCUUGCGCUCAACCAGAAAGUCUGUAAUCAUUUUAUGGGUA [A55U A62U A63G A135U] | 0.15
12 | GUUAACGGUCAUAGGCCAUGGAAACUAGGAGCACCAUUUCGCUGCCAGUGAAGAUAUGAACAAAGAAAAUCUGGGCCAGGCAGGCACCAAAAGAAAUAGUCUUGCGCUCAACCGGAAAGUCCGUAAUCAUUUAAAGGGUA [A55U U87C A114G U122C U133A] | 0.03
13 | GUUAACGGUCAUAGGCCAUGGAAACUAGGAGCACCAUUUCGCUGCCAGUGAAGAACUGAACAAAGAAAAUCUGGGCCAGGCAGGCAUCAAAAGAAGUAGUCUCGCGCUCAACCAGAAAGUCUGUAAUCAUUUUAAGGGUA [A56C A96G U103C] | 1.17
14 | GUUAACGGUCAUAGGCCAUGGAAACUAGGAGCACCAUUUCGCUGCCAGUGAAGAUAUGAACAAAGAAAAUCUGGGCCAGGCAGGCAUCAAAAGAAGUAGUCUUGCGCCCAACCAGAAAGUCUGUAAUCAUUUUAAGGGCA [A55U A96G U108C U139C] | 0.01
15 | GUUAACGGUCAUAGGCCAUGGAAACUAGGAGCACCAUUUCGCUGCCAGUGAAGAUAUGAACAAAGAAAAUCUGGGCCAGGCUGGCAUCAAAAGAAAUAGUCUUGCGCUCGACCAGAAAGUCUGUAAUCAUUUUAAGGGUA [A55U A82U A110G] | 0.04
16 | GUUAACGGUCAUAGGCCAUGGAAACUAGGAGCACCAUUUCGCUGCCAGUGAAGAUAUGGACAAAGAAAAUCUGGGCCAGGCGGGCAUCAAAAGAAAUAGUCCUGCGCUCAACCAGAAGGCCUGUAAUCAUUUUAAGGGUA [A55U A59G A82G U102C A118G U120C] | 0.1
17 | GUUAACGGUCAUAGGCCAUGGAAACUAGGAGCACCAUUUCGCUGCCAGUGAAGAUACGAACAAAGAAAAUCUGGGCCAGGCAGGCAUCAAAAGAGAUAGUCUUGCGCUCAACCAGAGAGUCUGUAAUCAUUUUAAGGGUA [A55U U57C A95G A117G] | 2.32
18 | GUUAACGGUCAUAGGCCAUGGAAACUAGGAGCACCAUUUCGCUGCCAGUGAAGAACUGAACAAAGAAAAUCUGGGCCUGGCAGGCAUCAAAAGAAAUAGUCUUGCGCUCAACCAGAAAGUCUGUAAUCAUUUUAAGGGUU [A56C A78U A140U] | 0.14
19 | GUUAACGGUCAUAGGCCAUGGAAACUAGGAGCACCAUUUCGCUGCCAGUGAAGAUAUGAACAAAGAAAAUCUGGGCCAGGCAGGCAUCAAAAGAAAUAGUCUUGCGCUCAACCAGGAAGUCUGUAAUCAUUUUAAGGGUG [A55U A116G A140G] | 0.92
20 | GUUAACGGUCAUAGGCCAUGGAAACUAGGAGCACCAUUUCGCUGCCAGUGAAGAUAAGAACAAAGAGGAUCUGGGCCAGGCAGGCAUCAAAAGAAAUAGUCUUGCGCUCAACCAGAAAGUCUGUAAUCAUUUUAAGGGUA [A55U U57A A67G A68G] | 0.81
21 | GUUAACGGUCAUAGGCCAUGGAAACUAGGAGCACCAUUUCGCUGCCAGUGAAGAUAUGAGCAAAGAAAAUCUGGGCCAGGCAGGCAUCAAAAGAAAUAGUCUUGCGCUCAACCAGAGAGUCUGUAAUCAUCUUAAGGGUA [A55U A60G A117G U131C] | 0.39
